# According to PubChem BioAssay AID1362 (SRMLSC, 2008):
# The list shows a part of the results. These are further read-outs of the screen, such as a control signal, another cell line or another target. No call is given for them. The list favours compounds with an active or inconclusive main result.
# Assay: growth inhibition of WT strain, primary screen, mitochondrial fusion inhibitor project, WT and mutant strains, chemical genetic (AID 1362); note: tested in S. cerevisiae
# Conditions: mitochondrial fusion phenotypic screen, at 10 µM
row,Structure (SMILES),inhibition [%]
1,CC(C)N(C(=S)Nc1cccc(C(F)(F)F)c1)C(C)c1ccccn1 (stereo not drawn),26
2,CC12CCC(C(=O)Nc3nc4ccc(Br)cc4s3)(OC1=O)C2(C)C (stereo not drawn),61.4
3,COC(=O)c1c(NC(=O)c2nc3ccccc3s2)sc2c1CC(C)(C)NC2(C)C,74.2
4,N=c1c2c(n(Cc3cccc(Cl)c3)c3c1CCC3)CCCC2,56.7
5,COc1ccc(NC(=O)N2CCCC(c3nc(-c4ccc(C(C)C)cc4)no3)C2)cc1 (stereo not drawn),50.5
6,CC(C)c1ccccc1NC(=S)NC(C)c1ccccc1 (stereo not drawn),49.7
7,O=C(N/N=C/c1c[nH]c2ccccc12)c1[nH]c2ccc(Br)cc2c1-c1ccccc1,35.3
8,FC(F)(F)c1cnc(N2CCC(=NOCc3ccc(Cl)cc3)CC2)c(Cl)c1,8.34
9,COc1ccccc1NC(=S)NCCC(c1ccccc1)c1ccccc1,49
10,CCCCCCCCCc1nc2sc3c(c2c(=O)n1NC(=O)c1ccccc1[N+](=O)[O-])CC(C)(C)OC3,30.5
11,O=C(C1=C[C@@H](C2CCCCC2)C[C@@H](OCc2ccc(CO)cc2)O1)N1CCN(Cc2ccccc2)CC1,16.6
12,CC(C)c1ccc(OCc2nc(-c3ccccn3)no2)c(Br)c1,1.12
13,Oc1ccccc1C1CC(c2cccs2)=NC(c2ccc(Cl)cc2)N1 (stereo not drawn),73
14,O=Nc1c(O)n(Cc2cccc(Cl)c2)c2ccccc12,9.55
15,CCc1cc(-c2n[nH]c(=S)n2Cc2ccccc2)cs1,33.8
16,CCOC(=O)N=Nc1c2ccccc2c2nc3no[nH]c3nc12,94.6
17,CC[n+]1c(/C=C/c2c[nH]c3ccccc23)ccc2cc(C)ccc21,68.6
18,CN1/C(=C/c2cc[n+](C)c3ccccc23)C=Cc2ccccc21,87.4
19,CCOc1cccc(-c2nn(-c3ccccc3)cc2/C=C(/C#N)C(=O)NCCCn2ccnc2)c1,-6.04
20,Cc1cccc2c1N(CCCOc1ccc(C(C)(C)C)cc1)C(=O)C2=O,60.7
21,Cc1ccc(NC(=S)N(Cc2ccc(Br)cc2)Cc2ccc(C(=O)O)cc2)cc1C,1.05
22,COc1ccc(C(=NNc2ccccc2C(=O)O)c2ccc(OC)cc2)cc1,-1.37
23,CCCCCC(=O)NNC(=S)NC(=O)c1ccc([N+](=O)[O-])cc1,47.4

row,Structure (SMILES),inhibition [%]
1,CCC(C)(C)c1ccc(OCCCC[n+]2ccccc2)c(C(C)(C)CC)c1,89.1
2,CCN(CC)c1ccc(NC(=O)Nc2ccccc2C(F)(F)F)cc1,0.16
3,CC(C)c1ccc(-n2cccc2/C=C2/C(=N)N3C=CSC3=NC2=O)cc1,71.3
4,O=C(c1ccc2c(c1)OCO2)N(Cc1cccs1)C1(C(=O)NC2CCCCC2)CCCCC1,-3.29
5,Clc1ccc(-c2nc3cnccn3c2NC2CCCC2)cc1,62.7
6,COc1ccc(NC(=S)N(CCc2c(C)[nH]c3ccc(C)cc23)Cc2cccs2)cc1,20.6
7,N#CC(c1ccc(Cl)cc1)c1ccc2c(C(F)(F)F)cc(C(F)(F)F)nc2n1 (stereo not drawn),84
8,O=C(CSc1ncn[nH]1)NCc1ccccc1,2.93
9,CN1CCN(c2cc(-c3ccccc3)nc3cc(-c4ccc(F)cc4)nn23)CC1,80.5
10,CCn1c(=O)c(C(=O)Nc2nc3ccccc3[nH]2)c(O)c2ccccc21,57.2
11,COc1ccc(-c2nc(CN3CCCCC3c3nccn3C)c(C)o2)c(C)c1C (stereo not drawn),56.3
12,Cc1ccc(C(C(=O)NC2CCCC2)N(C(=O)Cc2cccs2)c2ccc(C)c(C)c2)o1 (stereo not drawn),8.87
13,Cc1sc(NC(=O)CSc2nnnn2C2CCCCC2)c(C#N)c1C,5.31
14,CCc1ccc(Nc2cnn(-c3nc4ccccc4s3)c(=O)c2Cl)cc1,53.6
15,COc1ccc(OC)c(-c2c3cc(O)c(=O)cc-3oc3cc(O)c(O)cc23)c1,47.8
16,C#CCN(C)CC/C=C1\c2ccccc2CSc2ccccc21,21.4
17,Cc1ccc(NC(=S)N(Cc2ccco2)C(C)c2cccs2)c(Cl)c1 (stereo not drawn),19.6
18,CSCc1cc(N2CCOCC2)nc(SCc2ccc(Cl)c(Cl)c2)n1,15.1
19,Cc1ccc2nc(-c3ccccn3)c(NC3CCCC3)n2c1,62.5
20,COc1ccc(-n2ncc3c(NCc4ccco4)ncnc32)cc1,5.16
21,CCCCC(=O)NC(=S)Nc1ccccc1N1CCCCC1,13.2
22,COc1ccc(C(CCNCc2ccc(F)cc2)c2ccc(F)cc2)cc1 (stereo not drawn),37.2
23,Cc1cc(C)nc(NC(=O)/C=C/c2ccccc2Cl)c1,33

row,Structure (SMILES),inhibition [%]
1,O=C(NC(=S)Nc1ccccc1N1CCCCC1)c1ccccc1,-4.72
2,CCC1CCCCN1C(=O)c1cc(-c2ccc(Cl)c(Cl)c2)on1 (stereo not drawn),31.6
3,COc1cccc(Nc2c3c(nc4c(-c5ccccc5)c(C)nn24)CCC3)c1,19.2
4,Fc1ccc(CNC(=S)Nc2cccc(C(F)(F)F)c2)cc1,30.7
5,O=C(Oc1ccc2ccccc2c1Br)N1CCCCCC1,43.1
6,O=Nc1ccc(NOC(=O)c2ccccc2Br)cc1,28.2
7,Clc1ccc(-c2nnc(-c3ccco3)nc2N2CCCCC2)cc1,61
8,O=C(Nc1nc(-c2ccccn2)cs1)c1ccc2c(c1)OCCO2,65.1
9,O=C(/C(=C/O)N=Nc1cccc(C(F)(F)F)c1)c1ccccc1,69.2
10,CCC1Oc2ccc(C)cc2N(CC(=O)N(Cc2ccc(C)o2)C2CCCC2)C1=O (stereo not drawn),2.3
11,CCCc1sc(N)nc1-c1ccc(Cl)cc1,57.4
12,Cc1[nH]c2ccccc2c1/C=N/NC(=O)C1CC1(c1ccccc1)c1ccccc1 (stereo not drawn),14.4
13,COc1ccc(S(=O)(=O)N2CC3CCCN3c3cc(C(F)(F)F)ccc32)cc1 (stereo not drawn),67
14,Cc1ccc(SC(C)C(=O)Nc2ccccc2-c2ccccc2)cc1 (stereo not drawn),-2.25
15,Cc1cc(C)cc(NC(=O)c2ccc(Cn3nc(C)c(Cl)c3C)o2)c1,53.4
16,O=C(CN1C(=O)COc2ccccc21)N(Cc1cccnc1)Cc1cccc(F)c1,6.6
17,Cc1cc(C)nc(N2CCC(C(=O)N3CCN(c4cc(Cl)ccc4C)CC3)CC2)n1,26.3
18,Cn1c(C(=O)N2CCN(c3cccc(C(F)(F)F)c3)CC2)cc2sccc21,55.6
19,O=C(NC1CCCCCC1)C(=S)NCc1ccccc1,36.9
20,CCCCOC(=O)c1ccc(NC(=O)c2ccccc2OC)cc1,7.4
21,CCc1ccc(-c2nc(CN3CCC(C(=O)N4CCN(c5ccccc5)CC4)CC3)c(C)o2)cc1,50.7
22,COc1ccccc1NC(=O)CC1S/C(=N/N=C2\CCCc3ccccc32)NC1=O (stereo not drawn),2.48
